Measurements from PubChem BioAssay AID624296 (National Center for Advancing Translational Sciences (NCATS), 2012).
Screen size: about 350,000 compounds; about 9,900 (2.8%) were called active. This list was built around the results that the source calls inconclusive (neither active nor inactive); the mix of calls is not that of the screen. Calls come from the whole dose curve; as a rule, active = well fitted activation curve with a large enough effect; inconclusive = small, poorly fitted or top-dose-only effect; inactive = no such curve, though single readings can be large or run the other way. No potency is given beside an inconclusive call; the fits are too rough.

Test: A quantitative high throughput screen for small molecules that induce DNA re-replication in MCF 10a normal breast cells. For activity, positive = re-replication: % of control where 0% means no effect. Note: nearly all actives have a fitted effect of over 50% in size.
Conditions: MCF 10A DNA re-replication, Hoechst nuclear intensity, 48 h; activity, positive = re-replication: at 46.1 µM (top of the series)
Potency is the fitted concentration of half-maximal effect; tags give direction and shape of the fitted curve.

| Structure (SMILES) | Potency | activity, positive = re-replication |
| --- | --- | --- |
| N#CCCn1cc(C=C(C#N)C#N)c(-c2ccc(-c3ccccc3)cc2)n1 | inconclusive [activator, single point] | – |
| O=C(c1ccc(Cn2c(=S)[nH]c3ccccc3c2=O)cc1)N1CCN(c2ccccn2)CC1 | inconclusive [activator, full curve] | – |
| O=C(CN1CCN(c2cccc(Cl)c2)CC1)NC1CCCc2ccccc21 (stereo not drawn) | active: 20.6 µM | – |
| COc1ccc(NC(=O)C2CC3C=CC2C3)c([N+](=O)[O-])c1 (stereo not drawn) | inactive | – |
| CCS(=O)(=O)N1CCC(C(=O)NCCCN2CCCCCC2)CC1 | inconclusive [activator, single point] | – |
| CCOCc1cnc(C)nc1NCC(=O)c1c(C)[nH]c2ccc(OC)cc12 | inactive | – |
| Cc1cccc(NC(=S)N/N=C/c2cccc(O)c2)c1C | inconclusive [activator, partial curve, poor fit] | – |
| Cc1ccccc1Cn1c(C(=O)OC(C)C)cc2c1ccn2C | inconclusive [activator, partial curve, poor fit] | – |
| CC1CCC(C(C)C)C(O)C1 (stereo not drawn) | inactive | – |
| Cc1onc(-c2ccccc2Cl)c1C(=O)Nc1nnc(-c2ccc(Cl)cc2Cl)s1 | inconclusive [activator, single point] | – |
| C=CCc1cc(/C=C2/NC(=O)N(CC)C2=O)cc(OCC)c1OCc1ccc(C(=O)O)cc1 | inconclusive [activator, partial curve, poor fit] | – |
| COc1ccc(-c2cc(C3CCN(C(=O)OC(C)(C)C)CC3)[nH]n2)cc1 | inactive | – |
| CC1(C)CC(=O)C(C=Nc2ccccc2)=C(O)C1 | inactive | – |
| CCOc1cc(C2NN=C(c3ccccc3)S2)ccc1OCc1ccc(F)cc1 (stereo not drawn) | inconclusive [activator, partial curve, poor fit] | – |
| CCOC(=O)C1CCN(C(=O)CNS(=O)(=O)c2ccc(Br)s2)CC1 | inconclusive [activator, single point] | – |
| O=C(NCc1ccco1)Nc1ccc(Br)cc1Cl | inconclusive [activator, single point] | – |
| CCc1ccc(NC(=O)c2ccnc(C(C)(C)C)c2)cc1 | inactive | – |
| O=C(NCc1ccccc1Cl)c1cc2ccccc2oc1=O | inconclusive [activator, partial curve, poor fit] | – |
| CSc1nc(SCC(=O)NC(c2ccccc2)c2ccccc2)c2c3c(sc2n1)CN(C)CC3 | active: 5.17 µM | – |
| CCCCCCCCCCCC(=O)N1CC(=O)NC(=O)C1 | inconclusive [activator, single point] | – |
| COc1ccc(C(C(=O)NC(C)(C)C)N(C(=O)CCC(=O)Nc2cc(C)on2)c2cccc(F)c2)cc1 (stereo not drawn) | inconclusive [activator, partial curve, poor fit] | – |
| CCOc1ccc(-c2onc(C(F)(F)F)c2-c2cscn2)c(O)c1 | inconclusive [activator, single point] | – |
| CS(=O)(=O)N1CCC(C(=O)NCC2CCCO2)CC1 (stereo not drawn) | inconclusive [activator, single point] | – |

| Structure (SMILES) | Potency | activity, positive = re-replication |
| --- | --- | --- |
| CCOC(=O)CN1C(=O)C(=O)c2cc(C)ccc21 | inconclusive [activator, single point] | – |
| CC(C)(C)c1ccc(C(=O)c2c[nH]c(C(=O)NCCc3ccccn3)c2)cc1 | inactive | – |
| C#CCOCCOCCOCCNc1nc(N2CCN(C(=O)[C@H](CCC(=O)O)n3cc([C@@H](N)CO)nn3)CC2)nc(N2CCN(C(=O)[C@H](CCC(=O)O)n3cc([C@@H](N)CCSC)nn3)CC2)n1 | inconclusive [activator, full curve, poor fit] | – |
| CCCCc1cc(=O)oc2cc(C)cc(OCC(=O)N3C[C@H]4C[C@@H](C3)c3cccc(=O)n3C4)c12 | inconclusive [activator, partial curve, poor fit] | – |
| O=C(O)c1ccc2c(=O)n(-c3ccc(F)c(Cl)c3)c(=S)[nH]c2c1 | inactive | – |
| N#C/C(=C/c1cccs1)c1nc2ccccc2[nH]1 | inconclusive [activator, single point] | – |
| COc1ccccc1N1CCN(C(=O)/C=C/c2ccc(C)cc2)CC1 | active: 23.1 µM | – |
| C/C(=N/NC(=O)C1CC1(c1ccccc1)c1ccccc1)c1ccco1 (stereo not drawn) | inactive | – |
| O=c1[nH]c2ccc([N+](=O)[O-])cc2nc1/C=C(\O)c1ccccc1 | inactive | – |
| CCN(CC)c1ccc(NC(=O)c2cnc3ccccn3c2=O)c(C)c1 | inconclusive [activator, single point] | – |
| COc1ccc(CN2CSC(=S)N(Cc3ccccc3)C2)cc1 | inconclusive [activator, single point] | – |
| O=C(c1ccc2c(c1)[nH]c(=S)n1c3ccccc3nc21)N1CCN(c2ncccn2)CC1 | active: 9.2 µM | – |
| O=C(CCCN1CCC(O)(c2ccc(Br)cc2)CC1)c1ccc(F)cc1 | inactive | – |
| CC(C)N(C(C)C)S(=O)(=O)c1ccc(N2CCc3ccccc3C2)nc1 | inconclusive [activator, single point] | – |
| COc1ccc(CNC(=O)COC(=O)CO/N=C(\C)c2ccc3c(c2)OCO3)cc1 | – | inconclusive: 92.9% [activator] |
| CC(C)CN1C(=O)CC(Sc2ccccc2C(=O)O)C1=O (stereo not drawn) | inconclusive [activator, partial curve, poor fit] | – |
| O=C(Nc1ccccc1C(=O)NCc1cccnc1)c1cccc([N+](=O)[O-])c1 | inconclusive [activator, full curve, poor fit] | – |
| COc1ccccc1-n1c(=O)oc2ccc(Cl)cc2c1=O | active: 6.51 µM | – |
| C=CCC[C@H](Cc1ccc(F)cc1)C(=O)OC[C@@H](Cc1c[nH]c2ccccc12)NC(=O)[C@@H](CC=C)CC(=O)N[C@@H](CO)Cc1ccccc1 | active: 18.4 µM | – |
| COc1ccc(Cl)cc1NC(=O)CN(C)Cc1cccs1 | inconclusive [activator, single point] | – |
| C=CCN1C(=O)C2(OCCCO2)c2cc(CCCC)ccc21 | inconclusive [activator, single point] | – |
| c1ccc(-c2cnc(SCCN3CCOCC3)n2CC2CCCO2)cc1 (stereo not drawn) | inactive | – |
| Cc1c2c(nc3ccccc13)CC(C)(C)CC2=O | inconclusive [activator, full curve, poor fit] | – |

| Structure (SMILES) | Potency | activity, positive = re-replication |
| --- | --- | --- |
| CCCCN(C)S(=O)(=O)c1ccc(C(=O)Nc2nnc(-c3ccco3)o2)cc1 | inconclusive [activator, full curve, poor fit] | – |
| CN(CCc1ccccn1)C(=O)CCC1CCCN(C(=O)c2cccc(N(C)C)c2)C1 (stereo not drawn) | inactive | – |
| COc1ccc(N=C2S/C(=C\c3ccc(C)s3)C(=O)N2CC(C)C)cc1 | inconclusive [activator, partial curve] | – |
| CCCc1c(C)c2ccc(OCC(C)=O)cc2oc1=O | inactive | – |
| O=C(CCS(=O)(=O)Cc1ccccc1)Nc1ncc([N+](=O)[O-])s1 | inconclusive [activator, single point] | – |
| CCOC(=O)c1c(N2C(=O)Nc3ccccc3N2O)n[nH]c1-c1cccc(Cl)c1 | inconclusive [activator, single point] | – |
| C=CCn1c(=NC(=O)c2cccc(N3C(=O)CCC3=O)c2)sc2cccc(OC)c21 | inconclusive [activator, single point] | – |
| COc1ccc(S(=O)(=O)N2CCc3ccccc32)cc1C(=O)Nc1ccc(NC(C)=O)cc1 | active: 23.1 µM | – |
| C/C(=N\Nc1nc2c(s1)CCCC2)c1ccc(Cl)cc1 | inconclusive [activator, single point] | – |
| COC(=O)CC1C(=O)NCCN1C(=O)c1ccccc1 (stereo not drawn) | inconclusive [activator, single point] | – |
| Cc1ccccc1Nc1c(-c2ccccn2)nc2ccccn12 | inconclusive [activator, single point] | – |
| Cc1ccc(NC(=O)CN(C)C(=O)Cc2c(Cl)cccc2Cl)cc1 | inconclusive [activator, partial curve, poor fit] | – |
| CNC(=O)CSc1nc(N)c2c3c(sc2n1)CCC3 | inconclusive [activator, single point] | – |
| Cc1cc(C)cc(NC(=O)CCN2CCOCC2)c1 | inactive | – |
| CCn1c(=N)n(CC(=O)c2ccco2)c2ccccc21 | inconclusive [activator, partial curve, poor fit] | – |
| Cc1ccc(N2C(=O)c3ccc(N)cc3C2=O)cc1 | inconclusive [activator, single point] | – |
| C[C@@H](NC(=O)c1ncn(C)c1C(=O)N[C@H](C)c1ccccc1)c1ccccc1 | inactive | – |
| CCN1CCN(c2ccc(S(=O)(=O)N3CCCCC3)cc2NC(=O)Cc2ccc(OC)cc2)CC1 | inconclusive [activator, single point] | – |
| C=CCn1c(-c2cc(-c3ccc(C)cc3)nc3ccccc23)n[nH]c1=S | inconclusive [activator, single point] | – |
| COc1ccc(/C=C2/C(=O)N(Cc3ccccc3)N=C2C)cc1 | inconclusive [activator, partial curve, poor fit] | – |
| O=C1CC(N(CCc2ccccc2)C(=S)Nc2ccccc2)C(=O)N1c1ccc(F)cc1 (stereo not drawn) | active: 18.4 µM | – |
| COC(=O)c1c(C)[nH]c(C(=O)/C=C/c2cccc(Cl)c2)c1C | inconclusive [activator, partial curve, poor fit] | – |
